Reference: PubChem BioAssay AID296 (DTP/NCI, 2004)
Inconclusive results are not listed. For part of its entries the source gives two or more results. The list is limited to them. The source may hold further records. The records of an entry repeat one measurement in other runs, samples, wells, individuals or studies. Additions like (4×) give the number of equal values in this list.

Test system: MX-1 breast xenograft, nude mice, tumor weight T/C
Assay: NCI In Vivo Anticancer Drug Screen. Data for tumor model Human Mammary Carcinoma MX-1 Xenograft (intrarenal inoculation) in NU/NU Swiss (nude) mice
Conditions: endpoint: mean tumor weight change, higher = larger tumour
Protocol: The antitumor activity of compounds was measured in mice bearing transplantable tumors. Survival or tumor size were measured and the results are expressed as the measurement made in the treated group (T) divided by the measurement made in the vehicle treated control group (C). The tumor model used in this assay is Human Mammary Carcinoma MX-1 Xenograft (intrarenal inoculation) in NU/NU Swiss (nude) mice

[1] = dose: 12.5 mg/kg/injection, schedule: Q01DX010 (sc), vehicle: saline
[2] = dose: 300.0 mg/kg/injection, schedule: Q04DX003 (sc), vehicle: saline with Tween-80
[3] = dose: 25.0 mg/kg/injection, schedule: Q01DX010 (sc), vehicle: saline with Tween-80
[4] = dose: 50.0 mg/kg/injection, schedule: Q01DX010 (sc), vehicle: saline with Tween-80
[5] = dose: 75.0 mg/kg/injection, schedule: Q04DX003 (sc), vehicle: saline with Tween-80
[6] = dose: 150.0 mg/kg/injection, schedule: Q04DX003 (sc), vehicle: saline with Tween-80

For O=NNc1ccccn1, the T/C [1] was 17 % of control and 46 % of control, the T/C (dose: 16.0 mg/kg/injection, schedule: Q01DX010 (sc), vehicle: saline) was 2 % of control and 63 % of control and the T/C (dose: 16.0 mg/kg/injection, schedule: Q04DX003 (sc), vehicle: saline) was 16 % of control, 47 % of control, 97 % of control. For the same compound, the T/C (dose: 32.0 mg/kg/injection, schedule: Q01DX010 (sc), vehicle: saline) was -88 % of control and 5 % of control and the T/C (dose: 32.0 mg/kg/injection, schedule: Q04DX003 (sc), vehicle: saline) was 2 % of control, 11 % of control, 108 % of control.

With O=C1c2ccccc2C(=O)c2c(NCCNCCO)ccc(NCCNCCO)c21 the T/C (dose: 4.0 mg/kg/injection, schedule: Q01DX010 (sc), vehicle: water) was 36 % of control, 60 % of control, 74 % of control and the T/C (dose: 8.0 mg/kg/injection, schedule: Q01DX010 (sc), vehicle: water) was 12 % of control and 58 % of control.

CC(=O)O[C@H]1C(=O)[C@@]2(C)[C@H]([C@H](OC(=O)c3ccccc3)[C@]3(O)C[C@H](OC(=O)[C@H](O)[C@@H](NC(=O)c4ccccc4)c4ccccc4)C(C)=C1C3(C)C)[C@]1(OC(C)=O)CO[C@@H]1C[C@@H]2O was tested, and the T/C (dose: 50.0 mg/kg/injection, schedule: Q01DX010 (sc), vehicle: Klucel (hydroxypropylcellulose) (HPC)) was -15 % of control, 7 % of control, 34 % of control, the T/C (dose: 100.0 mg/kg/injection, schedule: Q01DX010 (sc), vehicle: Klucel (hydroxypropylcellulose) (HPC)) was -77 % of control, 3 % of control, 21 % of control and the T/C (dose: 200.0 mg/kg/injection, schedule: Q01DX010 (sc), vehicle: Klucel (hydroxypropylcellulose) (HPC)) was -67 % of control and 27 % of control.

For CC1CCC(n2cnc3c(Cl)ncnc32)O1 (configuration not stated), the T/C (dose: 150.0 mg/kg/injection, schedule: Q04DX003 (sc), vehicle: Klucel (hydroxypropylcellulose) (HPC)) was 10 % of control and 86 % of control.

CCC1(O)CC2CN(CCc3c([nH]c4ccccc34)C(C(=O)OC)(c3cc4c(cc3OC)N(C)C3C(O)(C(=O)NCCSSCCNC(=O)C5(O)C(O)C6(CC)C=CCN7CCC8(c9cc(C%10(C(=O)OC)CC%11CN(CCc%12c%10[nH]c%10ccccc%12%10)CC(O)(CC)C%11)c(OC)cc9N(C)C58)C76)C(O)C5(CC)C=CCN6CCC43C65)C2)C1 (configuration not stated) was tested, and the T/C (dose: 1.5 mg/kg/injection, schedule: Q04DX003 (sc), vehicle: saline) was 6 % of control and 88 % of control, the T/C (dose: 3.0 mg/kg/injection, schedule: Q04DX003 (sc), vehicle: saline) was -100 % of control and 20 % of control and the T/C (dose: 6.0 mg/kg/injection, schedule: Q04DX003 (sc), vehicle: saline) was -100 % of control and 3 % of control.

With O=C(O)C(CSC(c1ccccc1)(c1ccccc1)c1ccccc1)N=Cc1cccs1 (configuration not stated) the T/C (dose: 100.0 mg/kg/injection, schedule: Q04DX003 (sc), vehicle: suspension in saline) was 68 % of control and 120 % of control, the T/C (dose: 200.0 mg/kg/injection, schedule: Q04DX003 (sc), vehicle: suspension in saline) was 37 % of control, 79 % of control, 116 % of control and the T/C (dose: 400.0 mg/kg/injection, schedule: Q04DX003 (sc), vehicle: suspension in saline) was 17 % of control, 71 % of control, 81 % of control.

CC(Cc1ccc(O)cc1)NCC(O)c1ccc(O)c(O)c1 (configuration not stated) was tested, and the T/C [2] was 63 % of control and 94 % of control.

CN(C)c1ccc2c(NCCCCCCNc3ccnc4cc(N(C)C)ccc34)ccnc2c1 was tested, and the T/C (dose: 150.0 mg/kg/injection, schedule: Q04DX003 (sc), vehicle: distilled water + Tween-80 + alcohol) was 36 % of control, 81 % of control, 94 % of control and the T/C (dose: 300.0 mg/kg/injection, schedule: Q04DX003 (sc), vehicle: distilled water + Tween-80 + alcohol) was 7 % of control, 34 % of control, 57 % of control.

In the case of CN(C)N=Nc1cccc(C(N)=O)c1, the T/C (dose: 100.0 mg/kg/injection, schedule: Q04DX003 (sc), vehicle: Klucel (hydroxypropylcellulose) (HPC)) is reported as 18 % of control, 41 % of control, 45 % of control.

For OCCN1CCN(CCCN2c3ccccc3Sc3ccc(C(F)(F)F)cc32)CC1, the T/C (dose: 120.0 mg/kg/injection, schedule: Q04DX003 (sc), vehicle: saline) was 34 % of control and 62 % of control and the T/C (dose: 240.0 mg/kg/injection, schedule: Q04DX003 (sc), vehicle: saline) was 21 % of control and 50 % of control.

With C1OC1CN1CCN(CC2CO2)CC1 (configuration not stated) the T/C (dose: 4.0 mg/kg/injection, schedule: Q01DX010 (sc), vehicle: saline) was 35 % of control and 105 % of control and the T/C (dose: 8.0 mg/kg/injection, schedule: Q01DX010 (sc), vehicle: saline) was 15 % of control and 49 % of control.

COc1cccc2c1C(=O)c1c(O)c3c(c(O)c1C2=O)C[C@@](O)(C(C)=O)C[C@@H]3OC1CC(N(Cc2ccccc2)Cc2ccccc2)C(O)C(C)O1 (some centres not stated) was tested, and the T/C (dose: 12.5 mg/kg/injection, schedule: Q01DX010 (sc), vehicle: water) was 15 % of control, 93 % of control, 153 % of control and the T/C (dose: 25.0 mg/kg/injection, schedule: Q01DX010 (sc), vehicle: water) was 5 % of control, 42 % of control, 45 % of control.

COc1cc(NS(C)(=O)=O)ccc1Nc1c2ccccc2nc2ccccc12 was tested, and the T/C (dose: 1.5 mg/kg/injection, schedule: Q01DX010 (sc), vehicle: lactic acid) was 35 % of control and 193 % of control and the T/C (dose: 3.0 mg/kg/injection, schedule: Q01DX010 (sc), vehicle: lactic acid) was 31 % of control and 106 % of control.

For Cc1cc(NCCCCCCCNc2cc(C)nc3cc(N)ccc23)c2ccc(N)cc2n1, the T/C [3] was 15 % of control, 29 % of control, 97 % of control and the T/C [4] was 6 % of control, 26 % of control, 67 % of control.

With Nc1ncnc2c1ncn2C1OC(CO)C(O)C1O (configuration not stated) the T/C (dose: 800.0 mg/kg/injection, schedule: Q04DX003 (sc), vehicle: saline) was 80 % of control and 109 % of control.

CCOC(=O)C(N)CSC(=O)NC (configuration not stated) was tested, and the T/C (dose: 112.5 mg/kg/injection, schedule: Q04DX003 (sc), vehicle: saline) was 57 % of control and 161 % of control.

In the case of COc1ccc(S(=O)(=O)N/N=C/C(=O)O)cc1, the T/C [3] is reported as 56 % of control, 84 % of control, 113 % of control, the T/C [4] is reported as 35 % of control, 37 % of control, 64 % of control and the T/C (dose: 100.0 mg/kg/injection, schedule: Q01DX010 (sc), vehicle: saline with Tween-80) is reported as -16 % of control, 2 % of control, 22 % of control.

O=C[C@@H](CO)O[C@H](C=O)n1cnc2c(=O)[nH]cnc21 was tested, and the T/C (dose: 400.0 mg/kg/injection, schedule: Q04DX003 (sc), vehicle: saline with Tween-80) was 27 % of control and 78 % of control and the T/C (dose: 500.0 mg/kg/injection, schedule: Q04DX003 (sc), vehicle: saline with Tween-80) was 25 % of control and 73 % of control.

For CCCCNC(C)[C@]1(O)Cc2c(O)c3c(c(O)c2[C@@H](OC2CC(N)C(O)C(C)O2)C1)C(=O)c1c(OC)cccc1C3=O (some centres not stated), the T/C [1] was 14 % of control, 20 % of control, 70 % of control.

For C[N+](C)(C)c1cc2c(nn1)Nc1ccccc1S2, the T/C (dose: 25.0 mg/kg/injection, schedule: Q01DX010 (sc), vehicle: Klucel (hydroxypropylcellulose) (HPC)) was 76 % of control and 253 % of control.

In the case of CCOC(=O)C(CC(C)C)NC(=O)C(Cc1ccc(N(CCCl)CCCl)cc1)NC(C)=O (configuration not stated), the T/C [5] is reported as -99 % of control, 1 % of control, 22 % of control, the T/C [6] is reported as -98 % of control, -66 % of control, -37 % of control and the T/C [2] is reported as -99 % of control, -94 % of control, -69 % of control.

For C(=N/NC1=NCCN1)/c1c2ccccc2c(/C=N\NC2=NCCN2)c2ccccc12, the T/C (dose: 37.5 mg/kg/injection, schedule: Q04DX003 (sc), vehicle: suspension in saline) was 26 % of control and 67 % of control.

For C[n+]1c(-c2cccc(OCCOCCOc3cccc(-c4c5cc(N)ccc5c5ccc(N)cc5[n+]4C)c3)c2)c2cc(N)ccc2c2ccc(N)cc21, the T/C (dose: 8.0 mg/kg/injection, schedule: Q04DX003 (sc), vehicle: water) was 112 % of control and 155 % of control, the T/C (dose: 16.0 mg/kg/injection, schedule: Q04DX003 (sc), vehicle: water) was 18 % of control and 175 % of control and the T/C (dose: 32.0 mg/kg/injection, schedule: Q04DX003 (sc), vehicle: water) was 38 % of control and 165 % of control.

In the case of CN(C)c1nc(N(C)C)nc(N(C)C)n1, the T/C [5] is reported as -83 % of control and 46 % of control, the T/C [6] is reported as -89 % of control, -13 % of control, 19 % of control and the T/C [2] is reported as -100 % of control (2×) and -55 % of control.

CO[C@H]1Nc2c(ccc(C)c2O)C(=O)N2C=C(/C=C/C(N)=O)C[C@@H]12 was tested, and the T/C (dose: 0.25 mg/kg/injection, schedule: Q04DX003 (sc), vehicle: saline + alcohol) was 19 % of control and 100 % of control and the T/C (dose: 1.0 mg/kg/injection, schedule: Q04DX003 (sc), vehicle: saline + alcohol) was -65 % of control and 9 % of control.
